Data published in the supplement of paper PMC3334620.
Over roughly 33,000 sequences, “E-score (-0.5 to 0.5)” has its median near -0.043; the highest 2% begin near 0.37. The list shows a part of the results.

The sequences below were run against T1, Upc2 (UniProt Q12151) (assay: PBM E-score (8-mer binding enrichment) (E-score (-0.5 to 0.5)); higher = stronger / more preferred TF binding; most listed sequences are background and not binding sites). Settings: protein concentration: 200 nM; construct: GST-full length.
T1 sequence: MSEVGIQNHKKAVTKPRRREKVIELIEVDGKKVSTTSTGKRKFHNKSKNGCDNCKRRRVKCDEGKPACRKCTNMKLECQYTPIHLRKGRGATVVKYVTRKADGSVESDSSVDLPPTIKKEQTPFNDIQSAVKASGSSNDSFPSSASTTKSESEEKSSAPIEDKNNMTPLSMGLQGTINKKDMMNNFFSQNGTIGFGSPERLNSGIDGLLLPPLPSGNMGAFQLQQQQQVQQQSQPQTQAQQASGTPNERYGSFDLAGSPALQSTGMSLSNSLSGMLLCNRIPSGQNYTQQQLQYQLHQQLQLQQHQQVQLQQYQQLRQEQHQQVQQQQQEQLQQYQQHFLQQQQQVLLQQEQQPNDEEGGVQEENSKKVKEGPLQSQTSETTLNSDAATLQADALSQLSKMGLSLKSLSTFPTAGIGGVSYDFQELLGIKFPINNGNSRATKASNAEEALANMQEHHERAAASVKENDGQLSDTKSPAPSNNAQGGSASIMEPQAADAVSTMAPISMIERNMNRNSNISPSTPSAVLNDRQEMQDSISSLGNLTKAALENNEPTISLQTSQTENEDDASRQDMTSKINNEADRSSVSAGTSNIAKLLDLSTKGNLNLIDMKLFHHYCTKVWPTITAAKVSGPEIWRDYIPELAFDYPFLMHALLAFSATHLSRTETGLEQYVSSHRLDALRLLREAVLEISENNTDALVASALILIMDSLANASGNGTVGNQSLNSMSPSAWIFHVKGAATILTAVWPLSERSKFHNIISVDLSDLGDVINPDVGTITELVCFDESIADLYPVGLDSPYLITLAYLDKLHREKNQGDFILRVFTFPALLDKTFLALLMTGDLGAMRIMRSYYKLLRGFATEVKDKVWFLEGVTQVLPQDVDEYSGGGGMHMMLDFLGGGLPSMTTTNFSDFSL
How it was run: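 For each ungapped eight-base word taken together with its reverse complement, the Universal PBM Analysis Suite assigned an E-score. Binding data came from GST-tagged yeast transcription factors, applied at about 100-200 nM, on universal all-10-mer Agilent arrays made double-stranded by primer extension. Fluorescent anti-GST marked bound protein, and scans were normalised with masliner.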

Row | Sequence | PBM E-score
1 | AGTAGGAG | -0.332
2 | GGGGTAAA | -0.00107
3 | AGAAAGCT | -0.0199
4 | CCGCTAGA | -0.168
5 | GGGACTGA | -0.247
6 | CTGGATGA | -0.229
7 | AGGCATCA | -0.342
8 | CGAAGAGA | 0.145
9 | ACGCCCAG | -0.113
10 | CGCCGACC | -0.105
11 | CCGCACCC | -0.0947
12 | TCAGATAA | -0.0699
13 | AACAGTCC | -0.237
14 | AGATCGCA | 0.0548
15 | AGGAAGCG | 0.179
16 | ACGGACCT | 0.0403
17 | GGCGGGCA | -0.224
18 | CAGTGGAC | -0.22
19 | ATGCCTCA | -0.113
20 | CGGAGCAG | -0.0812
21 | GCTGGCGA | -0.0866
22 | TAGTCGAA | -0.0359
23 | AGTACGAA | 0.384
24 | CGCCAGCA | -0.169
25 | TATATGCA | -0.1

Row | Sequence | PBM E-score
26 | GTAGTAGA | -0.0548
27 | CAACAACA | -0.0959
28 | CCTGCATC | -0.139
29 | AATGCCAG | -0.16
30 | ATGCGTAG | -0.0488
31 | ACGATACT | 0.313
32 | CGGCGAGA | -0.00955
33 | ATGCCACC | -0.135
34 | CTACATAC | 0.073
35 | ATTATAGC | -0.0488
36 | GGTTTCTA | -0.107
37 | CTGTGTTA | 0.0604
38 | ATTATCCA | -0.0754
39 | GATTTAAC | 0.0216
40 | CTACGGCA | 0.0153
41 | GTCGTTCA | 0.467
42 | CCGGCCAA | -0.127
43 | ATAGTTAC | 0.0658
44 | ACAGGTCG | 0.0058
45 | AACCAACC | -0.127
46 | AATTGTGG | -0.112
47 | ATTAATCG | 0.18
48 | GGCTCTGA | -0.237
49 | GTGGGGCA | -0.058
50 | ATCACTTA | 0.0103

Row | Sequence | PBM E-score
51 | CTGTAGGC | -0.264
52 | TCTCATCA | -0.13
53 | CACGTTAC | 0.0193
54 | CTTACTTA | -0.119
55 | GGTGTAAA | -0.0925
56 | CTACACTA | -0.0243
57 | TGGTCCAA | -0.297
58 | CTAGGGAG | -0.131
59 | GACCTAAA | 0.251
60 | AGGTAGGA | -0.17
61 | GAAAGCAA | 0.154
62 | ACACGATA | 0.15
63 | AGCGTACG | 0.354
64 | AGGGTCAT | -0.145
65 | AACGTCGT | 0.38
66 | GTGTAGTA | 0.023
67 | CTGGCTGA | -0.179
68 | ACCTTAGC | -0.208
69 | CCGTAAGA | 0.21
70 | CTAGAACA | -0.0391
71 | AACCCCGA | -0.155
72 | TGAGCGAA | 0.259
73 | GGGCCCCC | -0.119
74 | CCCACCAA | 0.022
75 | AAGGCCCT | -0.147

Row | Sequence | PBM E-score
76 | CTCAAAGC | -0.131
77 | AGTCGCAA | 0.131
78 | ATTAATAG | -0.00044
79 | GAGAGCTC | -0.01
80 | AGATCCAG | -0.257
81 | ATCAGTTC | 0.0403
82 | AATCGCGT | 0.0506
83 | CTCCACTA | -0.0461
84 | AGTTGGAA | -0.0863
85 | AATCGGTA | 0.161
86 | TCACCTAA | -0.00358
87 | GAATGTGA | -0.0574
88 | CATTCGCA | 0.0275
89 | AAACGTCG | 0.342
90 | AATTATGT | -0.222
91 | GAACTGGC | -0.158
92 | CCGAATCG | 0.176
93 | AGACCACA | -0.146
94 | AGAAGAGC | -0.298
95 | ACTACGCG | 0.0466
96 | ATAGGGGC | -0.0743
97 | CCGTGAGC | -0.068
98 | ACCGTTCC | 0.324
99 | AGAGACGA | 0.0608
100 | GCAGTGGC | -0.132

Row | Sequence | PBM E-score
101 | CACCAGTA | -0.144
102 | AAACTGGA | 0.0104
103 | CATTACAA | -0.0174
104 | TCAACCGA | 0.18
105 | CAGTATGG | 0.00429
106 | CGATCGTC | 0.128
107 | CCACAGTC | -0.226
108 | CAGCGTAA | 0.144
109 | AAACATAT | 0.141
110 | CCCGTCCC | -0.151
111 | CGAGCATA | 0.175
112 | GTAACTGA | -0.0563
113 | CAAGGCTC | -0.273
114 | AAGTGCCA | -0.139
115 | GTTGTGGA | 0.0496
116 | CGAAAAAC | 0.138
117 | GGATGCAA | -0.0345
118 | ATCGCTCG | 0.165
119 | ACGATAAC | 0.321
120 | ACTACACT | -0.125
121 | ACTGGAAC | 0.129
122 | TTTATAAA | 0.138
123 | AGTCGATG | -0.00202
124 | AAGCCAGT | -0.0647
125 | ATGAGGTG | -0.132

Row | Sequence | PBM E-score
126 | TGGACACA | -0.143
127 | GCAGGGTA | -0.202
128 | AATCCCTG | -0.186
129 | AGCGTTGA | -0.00696
130 | GACGGTGC | 0.0569
131 | GTGGCCAC | -0.0982
132 | CGATGATC | 0.0749
133 | ATGTCACG | -0.0865
134 | ACTCGCGG | 0.083
135 | AGGGAGGC | -0.0336
136 | AAGACGAG | -0.00338
137 | GAGGCAAA | -0.198
138 | ATTATAAA | 0.142
139 | CCTAGCGA | -0.299
140 | CGGTTAAA | 0.214
141 | ACTGCATC | -0.05
142 | GAGGTTGA | -0.0567
143 | TTGAGCAA | 0.00299
144 | GCAGAGAC | -0.318
145 | GAGTACGC | -0.0301
146 | CAGACCAC | -0.182
147 | TACCGAGA | 0.137
148 | AAGCCCCG | -0.124
149 | AATTTGAC | 0.0401
150 | GACTCAGA | -0.181

Row | Sequence | PBM E-score
151 | CTGGACAA | -0.106
152 | CAACCCAG | -0.216
153 | ACCACCGA | -0.0106
154 | CGACAAAA | 0.188
155 | CCTCCTGC | -0.451
156 | AACCTTGG | -0.15
157 | CGCATTAA | 0.0259
158 | CCCTCACA | -0.164
159 | ACCATCTC | 0.00371
160 | AGTGCGAT | 0.0239
161 | TCTGCCCA | -0.195
162 | GGTTTTGA | -0.128
163 | GGTTCAGA | -0.186
164 | AGAGGACC | -0.0921
165 | CTTTTGGA | -0.147
166 | CCGATACC | -0.00432
167 | TCCAGAGA | -0.283
168 | TCAATAAA | 0.0497
169 | CTTTTCGA | -0.00354
170 | GTATCGAA | 0.142
171 | CGAACAAA | 0.183
172 | TATTCGCA | 0.086
173 | CCATATGA | -0.153
174 | ATAGAGGC | -0.0461
175 | ATTCAGGA | -0.0353

Row | Sequence | PBM E-score
176 | CTTCACGA | -0.0872
177 | AGTATCGC | 0.0702
178 | AAAGAACT | 0.123
179 | GCATGGTA | -0.0135
180 | GCACGCCA | -0.193
181 | ATTGTTCG | 0.231
182 | CAACCGAG | 0.219
183 | GCTCGAAA | 0.0199
184 | GCGGCGCC | 0.0908
185 | TCTCTAAA | -0.101
186 | GACCTCAA | -0.161
187 | CAGCGAAG | -0.248
188 | CCCACCGC | 0.048
189 | ATCTCCTG | -0.0597
190 | ACTAAGTC | -0.173
191 | TATAAAGA | -0.0656
192 | CCCGGCCC | -0.193
193 | ACTATCGC | 0.0323
194 | CTTCTTAC | 0.0375
195 | AAAGCTGT | -0.0179
196 | GCCAATAA | -0.0856
197 | CAGCCCAC | -0.0743
198 | ACTCTCGA | 0.0144
199 | AGCTAGGG | -0.268
200 | ACAGTCCG | -0.0351

Row | Sequence | PBM E-score
201 | ACCCTATG | -0.102
202 | CGTATTAA | 0.294
203 | GCGGGGCC | -0.0323
204 | AACAAAAT | -0.0992
205 | CAGGCTCC | -0.253
206 | AATGAACG | 0.346
207 | AATACGAG | 0.457
208 | AACCTACC | -0.1
209 | AACCATCC | -0.0924
210 | CTGGGGGA | -0.227
211 | CAATGGGG | -0.256
212 | CATAGTTC | -0.0682
213 | CGAACACC | 0.0867
214 | AGGAGGAC | -0.134
215 | CCGCTCTA | -0.0598
216 | ATTGGGCC | -0.0426
217 | CCCAGCGG | -0.0188
218 | CGGCATTA | 0.077
219 | GCATGGCC | -0.171
